This is an account of results in article PMC6212790.

Some of the results follow. At the low end of the ranking the order means little.

In the test the target is T1, GST-Rok (full length) (UniProt O34857).
T1 sequence: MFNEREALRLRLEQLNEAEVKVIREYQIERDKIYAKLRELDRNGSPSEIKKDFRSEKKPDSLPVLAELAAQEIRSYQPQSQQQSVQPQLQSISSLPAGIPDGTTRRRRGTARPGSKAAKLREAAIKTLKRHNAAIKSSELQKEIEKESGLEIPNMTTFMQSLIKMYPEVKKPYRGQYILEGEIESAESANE
Nature of the test: protein binding microarray.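 Further: rank score from −0.5 (least bound) to 0.5 (best bound).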 The following applies: Rok is a gene silencer of Bacillus subtilis; high values mean tight binding; most listed sequences are background and not binding sites; double strand, one strand shown.
In turn, AGCCCTGA displayed a binding signal of -0.252 E-score.

For ACCCCATA, the binding signal is -0.257 E-score.

Take ATGATGAC: the binding signal stood at 0.162 E-score.

In the case of AGACCTTG, the binding signal is -0.161 E-score.

For TCAAATGA, the binding signal was found to be 0.0213 E-score.

CGAGTTAG showed a binding signal of 0.0866 E-score.

Take TAAGAAGA: the binding signal is -0.0534 E-score.

Sequence AGTGGACA displayed a binding signal of 0.0404 E-score.

Sequence CGCGCTAC gave a binding signal of 0.0272 E-score.

AGGGCATC gave a binding signal of -0.128 E-score.

AGTGGATG registered a binding signal of 0.0468 E-score.

GCCGGCCA had a binding signal of -0.186 E-score.

With AATACAAA, the binding signal is 0.206 E-score.

The sequence AACCTCTG had a binding signal of -0.244 E-score.

GAGTACTA had a binding signal of 0.13 E-score.

As for ATCTATTG, the binding signal is 0.282 E-score.

Take ACTTAAAA: the binding signal was -0.0205 E-score.

In turn, AGCTGAAA came in with a binding signal of 0.118 E-score.

With ATAAGGAC, the binding signal is -0.2 E-score.

With AAGTTTTC, the binding signal is -0.00426 E-score.

CCTTATCC: the binding signal is -0.193 E-score.

Sequence ATCCGGTC came in with a binding signal of -0.0705 E-score.

CTGGATCC showed a binding signal of -0.0878 E-score.

ACTATTAA showed a binding signal of 0.289 E-score.

For AAGGTGGC, the binding signal was -0.203 E-score.

In turn, GGCCCTCA registered a binding signal of -0.333 E-score.

As for GAAGGATC, the binding signal is -0.19 E-score.

GGCGAACC: the binding signal was -0.172 E-score.

In turn, CTTTAATA came in with a binding signal of 0.17 E-score.

The sequence ATCCTGGC registered a binding signal of 0.0825 E-score.

The sequence GCAAGTGC returned a binding signal of -0.0648 E-score.

GGCATTAA registered a binding signal of -0.00985 E-score.

AGGTGAGG came in with a binding signal of -0.304 E-score.

Consider CACGGACC, for which the binding signal was -0.368 E-score.

For the sequence ACATGGAG, the binding signal came to 0.0619 E-score.

GGAGTCGA had a binding signal of -0.216 E-score.

GCTCTCAA registered a binding signal of -0.174 E-score.

In turn, AACGAATA gave a binding signal of -0.0498 E-score.

Consider AAATAAAT, for which the binding signal is 0.277 E-score.

With CATTGAAA, the binding signal was -0.0384 E-score.

CATCAGCA showed a binding signal of 0.0614 E-score.

The sequence CGCGCTGC had a binding signal of -0.189 E-score.

Regarding AATTGGTG, the binding signal was -0.022 E-score.

In turn, ACTCTGGA displayed a binding signal of -0.14 E-score.

In the case of ACGGGTCA, the binding signal is -0.352 E-score.

Take TAGTTTCA: the binding signal came to 0.392 E-score.

The sequence CATGACCC displayed a binding signal of 0.0788 E-score.

Take TAAAATTA: the binding signal stood at 0.199 E-score.

Turning to CGCGCCAA, the binding signal is -0.0904 E-score.

As to CCAATTCA, the binding signal is -0.128 E-score.

The sequence TAAAGTTA had a binding signal of 0.241 E-score.

TCCACGAA returned a binding signal of 0.0984 E-score.

With AGTCAACA, the binding signal is -0.00312 E-score.

As for CATCCTTA, the binding signal was -0.0116 E-score.

Turning to ATCATAAC, the binding signal was determined as 0.124 E-score.

Sequence AATGTAAG came in with a binding signal of 0.143 E-score.

CACGGAGG returned a binding signal of -0.272 E-score.

GCATTAGC: the binding signal is -0.0546 E-score.

In turn, CGCATCCA showed a binding signal of -0.0328 E-score.

GAGTTTCA registered a binding signal of -0.16 E-score.

On to ATCGTGAA, for which the binding signal was 0.0977 E-score.

CGCTAAAG yielded a binding signal of -0.0203 E-score.

AGTAGTGA gave a binding signal of 0.0919 E-score.

As for AAACGCGT, the binding signal worked out at 0.0134 E-score.

As to CAATAACA, the binding signal worked out at 0.0252 E-score.

GGTCTCAA: the binding signal is -0.171 E-score.

Sequence ACCCAGGA came in with a binding signal of -0.0255 E-score.

AAAAGGGG registered a binding signal of -0.259 E-score.

In turn, CACCGGAC came in with a binding signal of -0.206 E-score.

ATCGAGTA: the binding signal turned out to be 0.291 E-score.

As for AAGAATGC, the binding signal is -0.133 E-score.

With CTTTTTAA, the binding signal is -0.0243 E-score.

Turning to CAACCCAC, the binding signal was -0.205 E-score.

GGAGTCCA had a binding signal of -0.17 E-score.

TCAGCACA showed a binding signal of -0.0657 E-score.

CTAACGTA registered a binding signal of 0.15 E-score.

The sequence ATAGTCGA returned a binding signal of 0.117 E-score.

Sequence TAGTACAA had a binding signal of 0.265 E-score.

For GTGCCCAC, the binding signal is -0.113 E-score.

Consider ACTTGACT, for which the binding signal was 0.0107 E-score.

Sequence AAATGCGT returned a binding signal of 0.153 E-score.

GATCACCC displayed a binding signal of -0.243 E-score.

Sequence ACGTTTAC came in with a binding signal of 0.0787 E-score.

GACTTACC displayed a binding signal of 0.136 E-score.

In turn, TCCCTTAA yielded a binding signal of -0.159 E-score.

CCCCAACA returned a binding signal of -0.198 E-score.

Sequence CACTACAA came in with a binding signal of 0.143 E-score.

ACACGGCG registered a binding signal of -0.143 E-score.

The sequence GAGGTTGA displayed a binding signal of -0.0617 E-score.

In turn, CGGACAAC had a binding signal of -0.223 E-score.

The sequence TACCGGTA came in with a binding signal of 0.37 E-score.

On to CACTCGAA, for which the binding signal is -0.000333 E-score.

The sequence CGTCTACC had a binding signal of 0.0246 E-score.

Take CCGATAGC: the binding signal came to 0.0165 E-score.

AGCCACTG yielded a binding signal of -0.226 E-score.

Sequence GATGCCAC registered a binding signal of -0.22 E-score.

AGCCGAGA registered a binding signal of -0.224 E-score.

GTCTAGAC gave a binding signal of 0.168 E-score.

Consider ACCGTCGC, for which the binding signal is -0.261 E-score.

For the sequence ATTAGACG, the binding signal is 0.0757 E-score.

CTACGCTC registered a binding signal of -0.131 E-score.

CAAGGAGA yielded a binding signal of -0.213 E-score.

The sequence GGGCTATA gave a binding signal of -0.0501 E-score.

AATTAGGG returned a binding signal of -0.0268 E-score.

In the case of AACATAGT, the binding signal came out at 0.205 E-score.

AGGGCAAG yielded a binding signal of -0.303 E-score.

Take CATTAAAG: the binding signal was -0.0743 E-score.

Sequence AATCCCGG registered a binding signal of -0.195 E-score.

Regarding ACTGGTTA, the binding signal was 0.0445 E-score.

The sequence GGACGCGA registered a binding signal of -0.252 E-score.
